Data as given in PMC9760738, “Pharmacokinetics, absorption, distribution, metabolism and excretion of the MEK inhibitor zapnometinib in rats” (Frontiers in Pharmacology, 2022).
Values joined by “and” are separate entries in the source; they are usually repeats but may differ in a detail not shown here. Equal entries are not always repeated. This continues a long series; more values of the same kind are listed elsewhere.

Assay: Excretion balance of radioactivity after single oral 30 mg/kg [14C]-zapnometinib, Sprague-Dawley rats (Group 2)
Assay type: in vivo, rat
Conditions: for Dose recovered in urine, feces and cage washings: by 24 h post dose; for Expired air: mean total
Protocol: Oral doses of [^14C]-zapnometinib were administered as a suspension in 5% DMSO (v/v), 30% PEG 400 (v/v) and 7.5% (w/v) Captisol in water at a dose level of 30 mg/kg to male and female rats by gastric intubation at a dose volume of 4 ml/kg body weight. The selected dose level (30 mg/kg) was below the no observed adverse effect level (100 mg/kg), the formulation was selected based on data obtained in other nonclinical studies. The radioactive dose administered to each animal was quantified from the weight (excretion studies only) or volume of dosing formulation given, and its mean measured radioactivity concentration. The weight of test compound administered to each rat was determined from the radioactive dose administered and the specific activity of the test material.
Total excreta from three male and three female rats were collected after single oral doses of [^14C]-zapnometinib. Urine was collected into containers cooled in solid CO2 and feces were collected separately at ambient temperature. Expired air was trapped in 1M potassium hydroxide solution. After completion of the final excreta collection, rats were killed by cervical dislocation following sedation, and the carcasses retained for analysis.
Radioactivity was measured by liquid scintillation analysis using Wallac® 1409 automatic liquid scintillation counters. Samples were prepared according to the company’s SOP (see Supplementary Methods). Briefly, replicate weighed samples were mixed with Ultima Gold™ scintillation cocktail (PerkinElmer, United States) for the measurement of radioactivity. Radioactivity in amounts less than twice that of the background concentration in the sample under investigation was below the limit of accurate quantification (BLQ). […]
For Liquid scintillation analyses, carcasses from rats (Group 2) were solubilized by digestion at ca 55 °C overnight in a solution prepared from sodium hydroxide (80 g) and Triton X-405 (100 mL) in purified water (600 mL) and methanol (300 mL). After measurement of total sample weight (as appropriate), replicate portions of diluted dose solutions (ca 0.1 mL), plasma (ca 0.05 – 0.25 mL), urine (ca 0.05 – 0.25 mL), expired air trap solution (ca 1 mL) and cage wash (ca 1 mL) were mixed directly with Ultima Gold scintillation cocktail (5 mL; 15 mL for air traps) for measurement of radioactivity concentrations. Similarly, replicate weighed portions of digested carcass solutions (ca 1 mL plus 1 mL purified water) were mixed with Ultima Gold (10 mL) scintillation cocktail for measurement of radioactivity concentrations. Feces were weighed, then homogenized to a smooth paste after the addition of an appropriate volume (approximately 1.5 volumes) of purified water and the weight of each homogenate was recorded. Replicate weighed portions of feces (ca 0.2 g) and blood cells (ca. 0.25 g) were placed on Combustocones, which were then capped with cellulose pads and burned in oxygen using […]

[1] = individual females 10F, 11F, 12F, rows in order of periods 0-24, 0-48, 0-72, 0-96, 0-120, 0-144, 0-168 h

SMILES: O=C(O)c1ccc(F)c(F)c1Nc1ccc(I)cc1Cl [zapnometinib, 2-(2-Chloro-4-iodophenylamino)-3,4-difluorobenzoic acid]
- Cumulative excretion, urine (0-6 h, female, mean): 0.36 % administered dose
- Cumulative excretion, faeces (0-24 h, female, mean): 68.51 % administered dose
- Cumulative excretion, urine (0-24 h, female, mean): 3.21 % administered dose
- Cumulative, cage wash (0-24 h, female, mean): 0.32 % administered dose
- Cumulative, expired air (0-24 h, female, mean): 0.02 % administered dose
- Cumulative excretion, faeces (0-48 h, female, mean): 90.62 % administered dose
- Cumulative excretion, urine (0-48 h, female, mean): 3.92 % administered dose
- Cumulative, cage wash (0-48 h, female, mean): 0.42 % administered dose
- Cumulative, expired air (0-48 h, female, mean): 0.02 % administered dose
- Cumulative excretion, faeces (0-72 h, female, mean): 93.08 % administered dose
- Cumulative excretion, urine (0-72 h, female, mean): 4.05 % administered dose
- Cumulative, cage wash (0-72 h, female, mean): 0.44 % administered dose
- Cumulative, expired air (0-72 h, female, mean): 0.02 % administered dose
- Cumulative excretion, faeces (0-96 h, female, mean): 93.21 % administered dose
- Cumulative excretion, urine (0-96 h, female, mean): 4.08 % administered dose
- Cumulative, cage wash (0-96 h, female, mean): 0.45 % administered dose
- Cumulative excretion, faeces (0-120 h, female, mean): 93.26 % administered dose
- Cumulative excretion, urine (0-120 h, female, mean): 4.10 % administered dose
- Cumulative, cage wash (0-120 h, female, mean): 0.46 % administered dose
- Cumulative excretion, faeces (0-144 h, female, mean): 93.30 % administered dose
- Cumulative excretion, urine (0-144 h, female, mean): 4.11 % administered dose
- Cumulative, cage wash (0-144 h, female, mean): 0.46 % administered dose
- Radioactivity excreted in feces (0-168 h, both sexes): ~90 % dose
- Cage wash (0-168 h, female, mean): 0.60 % Administered dose
- Excretion in feces (0-168 h, female, mean): 93.32 % Administered dose
- Excretion in urine (0-168 h, female, mean): ~4 % Administered dose and 4.12 % Administered dose
- Cage wash (0-168 h, male, mean): 0.22 % Administered dose
- Excretion in feces (0-168 h, male, mean): 90.45 % Administered dose
- Excretion in urine (0-168 h, male, mean): ~3 % Administered dose and 2.83 % Administered dose
- Dose recovered in urine, feces and cage washings (females): ~72 % dose
- Dose recovered in urine, feces and cage washings (males): ~82 % dose
- Expired air (female): 0.02 % Administered dose
- Dose excreted (first 24 h post dose, males and females): > 70 % dose
- Cumulative, expired air (individual females 10F, 11F, 12F, periods 0-24, 0-48, 0-72 h): 0.02 % administered dose
- Cumulative excretion, urine (individual females 10F, 11F, 12F, rows in order of periods 0-6, 0-24, 0-48, 0-72, 0-96, 0-120, 0-144, 0-168 h): 0.44 % administered dose and 0.35 % administered dose and 0.28 % administered dose and 3.09 % administered dose and 3.03 % administered dose and 3.50 % administered dose and 3.79 % administered dose and 3.70 % administered dose and 4.26 % administered dose and 3.96 % administered dose and 3.81 % administered dose and 4.37 % administered dose and 4.00 % administered dose and 3.84 % administered dose and 4.41 % administered dose and 4.02 % administered dose and 3.86 % administered dose and 4.43 % administered dose and 4.03 % administered dose and 3.87 % administered dose and 4.44 % administered dose and 4.04 % administered dose and 3.88 % administered dose and 4.45 % administered dose
- Cumulative excretion, faeces [1]: 68.79 % administered dose and 74.70 % administered dose and 62.03 % administered dose and 90.11 % administered dose and 96.59 % administered dose and 85.16 % administered dose and 96.05 % administered dose and 97.23 % administered dose and 85.96 % administered dose and 96.19 % administered dose and 97.39 % administered dose and 86.06 % administered dose and 96.25 % administered dose and 97.44 % administered dose and 86.10 % administered dose and 96.29 % administered dose and 97.47 % administered dose and 86.13 % administered dose and 96.32 % administered dose and 97.49 % administered dose and 86.15 % administered dose
- Cumulative, cage wash [1]: 0.39 % administered dose (2×) and 0.21 % administered dose and 0.35 % administered dose and 0.48 % administered dose and 0.37 % administered dose and 0.42 % administered dose (2×) and 0.50 % administered dose and 0.44 % administered dose and 0.51 % administered dose and 0.40 % administered dose (3×) and 0.45 % administered dose (2×) and 0.52 % administered dose and 0.53 % administered dose (2×) and 0.46 % administered dose and 0.85 % administered dose
- Expired air (male): 0.02 % Administered dose
- Compound excreted (within 48 h, mainly via feces): more than 90%
